Experimental data published in PubChem BioAssay AID504466 (National Center for Advancing Translational Sciences (NCATS), 2011).
Hit rate of the full screen: of about 330,000 compounds, about 4,200 (1.3%) were called active. The shares of active, inactive and inconclusive entries below differ from those in the screen. The call rests on the fitted dose curve; in most records, active means well fitted activation curve with a large enough effect; inconclusive means small, poorly fitted or top-dose-only effect; inactive means no such curve, though single readings can be large or run the other way. Potencies of inconclusive entries are doubtful fits and often do not repeat.

assay: qHTS screen for small molecules that induce genotoxicity in human embryonic kidney (HEK293T) cells expressing luciferase-tagged ELG1; conditions: HEK293T ELG1-luciferase reporter, luminescence, 16 h; series mostly up to 46 µM; activity change, positive = activation: at the top concentration; further: nearly all actives have a fitted effect of over 60% in size; on activity change, positive = activation: % of control where 0% means no effect
In short: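 16 hr compound incubation (37 °C, 5% CO2) of HEK293T cells carrying luciferase-tagged ELG1; luciferase then measured by ONE-Glo luminescence after 30 min at RT.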
Potency means the concentration at half of the fitted maximal effect; tags describe the fitted curve by direction and shape.

Structure (SMILES)	activity change, positive = activation	Potency
NC(=O)C1CCN(c2nc(-c3cccs3)cs2)CC1	inactive: 14.8%	
CC(C)(C)C(=O)N1CCN(c2nc3ccc(Cl)cc3s2)CC1		inconclusive: 7.3 µM [activator, partial curve, poor fit]
COc1cc(/C=N/Nc2ccccn2)ccc1OCC(C)C	inactive: 14.5%	
COc1ccc(CN2C(=O)C(C)S/C2=N/N=C/c2ccco2)cc1 (stereo not given)		inconclusive: 20.6 µM [activator, partial curve, poor fit]
Cc1cc2nc(-c3cccnc3SCC(=O)NC3CC3)[nH]c2cc1C		inconclusive: 10.3 µM [activator, partial curve]
CCn1c(SCC(=O)Nc2ccc(C(C)=O)cc2)nc2c([nH]c3ccccc32)c1=O		active: 16.4 µM
CC(C)=CC(=O)OCc1cc([N+](=O)[O-])cc2c1OCOC2		inconclusive: 20.6 µM [activator, partial curve]
CCOc1ccc(NC(=O)c2nsc(Cl)c2Cl)cc1		active: 4.61 µM
CC(C(=O)Nc1ccccn1)N1C(=O)c2ccccc2S1(=O)=O (stereo not given)	inactive: 2.57%	
Cc1ccc2cccc(OCc3cccc([N+](=O)[O-])c3)c2n1	inactive: -7.68%	
COc1cccc(-c2c(C#N)c(N)nc3c2c(=O)nc2sccn23)c1	inactive: 7.69%	
CCOC(=S)SCC(=O)Nc1nc(-c2ccccc2)cs1		inconclusive: 23.1 µM [activator, partial curve, poor fit]
COc1ccc(C(=O)NC2CCN(C(=S)Nc3cccc(C)c3C)CC2)cc1		inconclusive: 32.6 µM [activator, partial curve, poor fit]
Cc1cnc(NC(=O)c2sc(Nc3ccccc3)nc2N)o1		inconclusive: 13 µM [activator, partial curve, poor fit]
CCc1ccc(-c2nc(SCC(=O)NC3CC3)n[nH]2)cc1		inconclusive: 25.9 µM [activator, partial curve, poor fit]
COc1cc(/C=C(\C#N)c2nc3ccccc3n2C)cc(OC)c1O	inactive: -7.76%	
CCc1c(C(=O)Nc2ccc(C)c(C)c2)[nH]c(C)c1C(C)=O		inconclusive: 18.3 µM [activator, partial curve, poor fit]
CNc1ccc(OC)cc1-n1cnc(-c2ccc([N+](=O)[O-])cc2)c1		inconclusive: 23.1 µM [activator, partial curve, poor fit]
COc1cc(OC)cc(-c2cc3cc4c(cc3cn2)OCO4)c1		active: 4.11 µM
Cc1cccc(-c2nc3ccc(C(=O)NCCN4CCN(C)CC4)cc3nc2-c2cccc(C)c2)c1		inconclusive: 29.1 µM [activator, partial curve, poor fit]
CNS(=O)(=O)c1cc(Br)ccc1S(=O)c1ccccc1C(=O)O (stereo not given)	inactive: 0.233%	
N#C/C(=C/c1ccccc1)c1nn(CCO)c(N)c1C#N		inconclusive: 14.6 µM [activator, single point]
CN1CCN(CC(=O)O)CC1	inactive: -0.942%	
CN(C)c1ccc(/C=C(/C#N)C(=O)NCc2ccccc2)o1		inconclusive: 18.4 µM [activator, partial curve, poor fit]

Structure (SMILES)	activity change, positive = activation	Potency
O=C(CSc1ncccc1C(=O)O)c1cccc(C(F)(F)F)c1		inconclusive: 23.1 µM [activator, partial curve, poor fit]
CCOC(=O)C1=C(COC(=O)/C=C/c2cccc(F)c2)NC(=O)NC1C (stereo not given)	inactive: 4.4%	
O=C(CCc1nnc(C2CCCCC2)o1)N1CCN(c2ccccc2F)CC1		inconclusive: 10.3 µM [activator, partial curve]
COc1ccc(C(=O)COc2ccccc2N2C(=O)C3C4C=CC(C4)C3C2=O)cc1 (stereo not given)		inconclusive: 12.6 µM [activator, single point]
O=S(=O)(Nc1ccc2nc(N3CCOCC3)sc2c1)c1ccccc1		inconclusive: 20.6 µM [activator, partial curve, poor fit]
Cc1ccccc1C(=O)c1cccn1CC(=O)NCc1ccccc1Cl		inconclusive: 20.6 µM [activator, partial curve, poor fit]
CC(Oc1cccc(Cl)c1)C(=O)Nc1ccccc1N1CCCCC1 (stereo not given)		inconclusive: 16.4 µM [activator, partial curve, poor fit]
N/C(=N\OC(=O)c1ccc(Cl)cc1Cl)c1ccccc1		inconclusive: 0.366 µM [activator, full curve]
COc1ccc(N(CC(=O)Nc2cccc(N(C)S(C)(=O)=O)c2)S(=O)(=O)c2ccccc2)cc1Cl	inactive: -11.3%	
O=C(Nc1ccc(NC(=O)c2cccs2)cc1)c1cccs1		inconclusive: 29.1 µM [activator, single point]
O=C(NCCNC(=O)c1cc(OCC(F)(F)F)ccc1OCC(F)(F)F)Nc1ccc(Cl)cc1	inactive: -6.51%	
O=C(COc1ccc(Cl)cc1Cl)Nc1ccc(Cl)cn1		active: 1.16 µM
CN1C(=O)/C(=C/c2cccc([N+](=O)[O-])c2)C(=O)N1c1ccccc1		inconclusive: 29.1 µM [activator, single point]
CCOc1ccc(C2=Nc3ccc(Br)cc3C(c3ccc(N4CCOCC4)cc3)=NN2)cc1		inconclusive: 25.9 µM [activator, partial curve, poor fit]
Cc1cc(C)c(C)c(S(=O)(=O)NCC(=O)Nc2ccc(F)cc2)c1C	inactive: -14.3%	
CN(C)c1ccc(C(CNC(=O)c2cccs2)N(C)C)cc1 (stereo not given)		inconclusive: 20.6 µM [activator, partial curve, poor fit]
CCOC(=O)c1c(C)[nH]c(C(=O)COC(=O)CNC(=O)c2ccccc2Cl)c1C		inconclusive: 23.1 µM [activator, single point]
Fc1cccc(Cl)c1Cn1nnc(-c2ccc3c(c2)OCO3)n1		inconclusive: 14.6 µM [activator, partial curve]
COc1ccccc1Nc1nnc(SCC(=O)N2CCCC2)s1		inconclusive: 18.4 µM [activator, single point]
CC(C)[C@H](NC(=O)c1ccccc1F)C(=O)NCc1ccc(S(N)(=O)=O)cc1		inconclusive: 16.4 µM [activator, partial curve, poor fit]
COc1ccc(/C=N/c2oc(-c3ccccc3)cc2C#N)cc1OC		inconclusive: 32.6 µM [activator, partial curve, poor fit]
CC1(C)CC(=O)c2c(-c3cccs3)n[nH]c2C1		inconclusive: 16.4 µM [activator, partial curve, poor fit]
Oc1ccc(-c2nc3ccccc3s2)cc1		active: 3.66 µM
CN1CCN(C(=O)c2cccc(COc3cc(Cl)ccc3Cl)c2)CC1		inconclusive: 5.8 µM [activator, partial curve, poor fit]

Structure (SMILES)	activity change, positive = activation	Potency
CC(C)c1ccc(NC(=O)c2cccc(Br)c2)cc1		active: 20.6 µM
Cc1nc(NCC(c2ccccc2)N(C)C)c2c(C)c(C)sc2n1 (stereo not given)	inactive: -1.61%	
Cc1nnc(C)n1/N=C/c1ccc2c(c1)OCCO2		inconclusive: 25.9 µM [activator, single point]
Cc1cccc(Nc2nc(Cl)ncc2F)c1C	inactive: -1.01%	
CN(Cc1cccnc1)C(=O)c1cc(COc2ccc3c(c2)CCCC3)on1		inconclusive: 7.3 µM [activator, partial curve]
COc1ccc(CNC(=O)C(C)OC(=O)CO/N=C(\C)c2ccc3c(c2)OCO3)cc1 (stereo not given)	inactive: -2.41%	
COc1ccc2c(c1)CCc1sc(NC(=O)c3ccco3)nc1-2		inconclusive: 16.4 µM [activator, partial curve, poor fit]
O=C(CNC(=O)c1ccco1)N=Nc1c(O)n(CCc2ccccc2)c2ccccc12		inconclusive: 6.51 µM [activator, single point]
COc1cccc(-c2cc(C(=O)Nc3ccc([N+](=O)[O-])cn3)c3ccccc3n2)c1	inactive: -5.41%	
Cn1nc(C(=O)Nc2cccc(S(N)(=O)=O)c2)c2ccccc2c1=O		inconclusive: 20.6 µM [activator, partial curve, poor fit]
NS(=O)(=O)c1cc(C(=O)OCC(=O)c2ccc3c(c2)OCCO3)ccc1Cl		inconclusive: 16.4 µM [activator, partial curve, poor fit]
CCN(CC)C(=S)SCC(=O)c1ccccc1		inconclusive: 8.2 µM [activator, partial curve]
COc1ccc(NC(=O)CSc2nc3scc(C)c3c(=O)[nH]2)cc1		inconclusive: 20.6 µM [activator, partial curve, poor fit]
Cc1ccccc1-n1nnnc1Sc1nnnn1-c1ccccc1	inactive: -19.2%	
Cc1ccc(CN2CC(C(=O)NNC(=O)c3ccc(F)cc3)CC2=O)cc1 (stereo not given)	inactive: -0.616%	
Cc1ccc(-c2noc(-c3ccno3)n2)cc1		inconclusive: 18.3 µM [activator, partial curve, poor fit]
COC(=O)c1ccc(-c2nc3cc(Cl)c(N)cc3s2)cc1		inconclusive: 0.058 µM [activator, full curve, poor fit]
Cc1ccc(Cl)cc1NC(=O)COC(=O)CSc1ccccc1	inactive: -1.31%	
O=C(CSc1nc2scc(-c3ccccc3)c2c(=O)[nH]1)N1CCOCC1	inactive: -3.1%	
Cc1cc(NC(=O)C(C)SCC(=O)Nc2ccccc2C(C)(C)C)no1 (stereo not given)		inconclusive: 23.1 µM [activator, single point]
O=C(Nc1ccc(CN2CCOCC2)cc1)c1ccc(-c2cccc(Cl)c2)o1	inactive: -15.5%	
CCOc1ccc(-c2cc(CCCC(=O)NCc3cccnc3)no2)cc1		inconclusive: 9.2 µM [activator, partial curve, poor fit]
